Test results as given in the supplement of paper PMC8728848.
Some of the results follow.

Key:
Experiment in all cases: glycan array binding signal (z-score within array); higher = stronger binding
Settings in all cases: glycan notation: IUPAC condensed, linker removed
[1] = molecular target: GlcNAc(b1-3)[GlcNAc(b1-6)]GalNAc
Procedure, shortened: (§1)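 From the Consortium for Functional Glycomics database, 3228 arrays were curated, keeping only those whose protein sequence was available. Binding is given as a within-array Z-score averaged across arrays sharing a protein sequence and across linkers. Negative Z-scores can be read as non-binding.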

[2] = molecular target: GlcNAc(b1-4)Gal(b1-4)GlcNAc
Procedure, shortened: as §1

[3] = molecular target: GlcNAc(b1-4)GlcNAc
Procedure, shortened: as §1

[4] = molecular target: GlcNAc(b1-4)GlcNAc(b1-4)GlcNAc
Procedure, shortened: as §1

[5] = molecular target: GlcNAc(b1-4)GlcNAc(b1-4)GlcNAc(b1-4)GlcNAc(b1-4)GlcNAc
Procedure, shortened: as §1

[6] = molecular target: GlcNAc(b1-4)GlcNAc(b1-4)GlcNAc(b1-4)GlcNAc(b1-4)GlcNAc(b1-4)GlcNAc
Procedure, shortened: as §1

[7] = molecular target: GlcNAc(b1-4)[GlcNAc(b1-6)]GalNAc
Procedure, shortened: as §1

[8] = molecular target: GlcNAc(b1-6)Gal(b1-4)GlcNAc
Procedure, shortened: as §1

[9] = molecular target: GlcNAc(b1-6)GalNAc
Procedure, shortened: as §1

[10] = molecular target: GlcNAc3Prop(b1-4)GlcNAc
Procedure, shortened: as §1

[11] = molecular target: Kdn(a2-3)Gal(b1-3)GlcNAc
Procedure, shortened: as §1

[12] = molecular target: Kdn(a2-3)Gal(b1-4)GlcNAc
Procedure, shortened: as §1

[13] = molecular target: Man(a1-2)Man(a1-2)Man(a1-3)Man
Procedure, shortened: as §1

[14] = molecular target: Man(a1-2)Man(a1-2)Man(a1-6)[Man(a1-3)]Man
Procedure, shortened: as §1

[15] = molecular target: Man(a1-2)Man(a1-3)Man
Procedure, shortened: as §1

[16] = molecular target: Man(a1-2)Man(a1-3)[Man(a1-2)Man(a1-6)]Man
Procedure, shortened: as §1

[17] = molecular target: Man(a1-2)Man(a1-3)[Man(a1-2)Man(a1-6)]Man(a1-6)[Man(a1-2)Man(a1-2)Man(a1-3)]Man
Procedure, shortened: as §1

[18] = molecular target: Man(a1-2)Man(a1-3)[Man(a1-2)Man(a1-6)]Man(a1-6)[Man(a1-2)Man(a1-2)Man(a1-3)]Man(b1-4)GlcNAc(b1-4)GlcNAc
Procedure, shortened: as §1

[19] = molecular target: Man(a1-2)Man(a1-3)[Man(a1-6)]Man(a1-6)[Man(a1-2)Man(a1-3)]Man(b1-4)GlcNAc(b1-4)GlcNAc
Procedure, shortened: as §1

[20] = molecular target: Man(a1-2)Man(a1-6)[Man(a1-3)]Man(a1-6)[Man(a1-2)Man(a1-2)Man(a1-3)]Man
Procedure, shortened: as §1

[21] = molecular target: Man(a1-2)Man(a1-6)[Man(a1-3)]Man(a1-6)[Man(a1-2)Man(a1-2)Man(a1-3)]Man(b1-4)GlcNAc(b1-4)GlcNAc
Procedure, shortened: as §1

[22] = molecular target: Man(a1-3)[Man(a1-6)]Man
Procedure, shortened: as §1

[23] = molecular target: Man(a1-3)[Man(a1-6)]Man(a1-6)[Man(a1-2)Man(a1-3)]Man(b1-4)GlcNAc(b1-4)GlcNAc
Procedure, shortened: as §1

B1: P-Selectin (Homo sapiens), P16109 (protein)
chain: MANCQIAILYQRFQRVVFGISQLLCFSALISELTNQKEVAAWTYHYSTKAYSWNISRKYCQNRYTDLVAIQNKNEIDYLNKVLPYYSSYYWIGIRKNNKTWTWVGTKKALTNEAENWADNEPNNKRNNEDCVEIYIKSPSAPGKWNDEHCLKKKHALCYTASCQDMSCSKQGECLETIGNYTCSCYPGFYGPECEYVRECGELELPQHVLMNCSHPLGNFSFNSQCSFHCTDGYQVNGPSKLECLASGIWTNKPPQCLAAQCPPLKIPERGNMTCLHSAKAFQHQSSCSFSCEEGFALVGPEVVQCTASGVWTAPAPVCKAVQCQHLEAPSEGTMDCVHPLTAFAYGSSCKFECQPGYRVRGLDMLRCIDSGHWSAPLPTCEAISCEPLESPVHGSMDCSPSLRAFQYDTNCSFRCAEGFMLRGADIVRCDNLGQWTAPAPVCQALQCQDLPVPNEARVNCSHPFGAFRYQSVCSFTCNEGLLLVGASVLQCLATGNWNSVPPECQAIPCTPLLSPQNGTMTCVQPLGSSSYKSTCQFICDEGYSLSGPERLDCTRSGRWTDSPPMCEAIKCPELFAPEQGSLDCSDTRGEFNVGSTCHFSCDNGFKLEGPNNVECTTSGRWSATPPTCKGIASLPTPGLQCPALTTPGQGTMYCRHHPGTFGFNTTCYFGCNAGFTLIGDSTLSCRPSGQWTAVTPACRAVKCSELHVNKPIAMNCSNLWGNFSYGSICSFHCLEGQLLNGSAQTACQENGHWSTTVPTCQAGPLTIQEASTSITAYKSEGESAEFSFPLNLGEESLQGELRWKAEKAPSSQSWITFSLKNQKVSVQKSTSNPKFQLSETLPLTLQIPQVSLQFAGSGNLTLTLDRGILYQEVNLVVMKVTQPDSNTLTCEVMGPTSPKMRLILKQENQEARVSRQEKVIQVQAPEAGVWQCLLSEGEEVKMDSKIQVLSKGLNSGGGSGGGTGGGDLAPQMLRELQETNAALQDVRELLRQQVKEITFLKNTVMECDACGLDRNLPPLAPLGPHPETLVKVKDAEDQLGARVGYIELDLNSGKILESFRPEERFPMMSTFKVLLCGAVLSRIDAGQEQLGRRIHYSQNDLVEYSPVTEKHLTDGMTVRELCSAAITMSDNTAANLLLTTIGGPKELTAFLHNMGDHVTRLDRWEPELNEAIPNDERDTTMPVAMATTLRKLLTGELLTLASRQQLIDWMEADKVAGPLLRSALPAGWFIADKSGAGERGSRGIIAALGPDGKPSRIVVIYTTGSQATMDERNRQIAEIGASLIKHWGPDYKDHDGDYKDHDIDYKDDDDKGPHHHHHH
B1 was tested, and the “glycan array binding signal (z-score)” value [1] was -0.329, the “glycan array binding signal (z-score)” value [2] was -0.365 and the “glycan array binding signal (z-score)” value [3] was -0.214. The “glycan array binding signal (z-score)” value [4] was 0.144, the “glycan array binding signal (z-score)” value [5] was -0.068 and the “glycan array binding signal (z-score)” value [6] was -0.163. For the same binder, the “glycan array binding signal (z-score)” value [7] was -0.443, the “glycan array binding signal (z-score)” value [8] was -0.272 and the “glycan array binding signal (z-score)” value [9] was -0.254. For the same binder, the “glycan array binding signal (z-score)” value [10] was -0.231, the “glycan array binding signal (z-score)” value [11] was -0.342 and the “glycan array binding signal (z-score)” value [12] was -0.191. The “glycan array binding signal (z-score)” value [13] was -0.04, the “glycan array binding signal (z-score)” value [14] was -0.392 and the “glycan array binding signal (z-score)” value [15] was -0.154. For the same binder, the “glycan array binding signal (z-score)” value [16] was -0.217, the “glycan array binding signal (z-score)” value [17] was -0.181 and the “glycan array binding signal (z-score)” value [18] was 0.187. For the same binder, the “glycan array binding signal (z-score)” value [19] was -0.335, the “glycan array binding signal (z-score)” value [20] was 0.316 and the “glycan array binding signal (z-score)” value [21] was -0.061. The “glycan array binding signal (z-score)” value [22] was -0.361 and the “glycan array binding signal (z-score)” value [23] was 0.11.
